{"source": "paper PMC7679404", "binders": {"B1": {"name": "CROWDED NUCLEI 4 (CRWN4), yeast two-hybrid fusion (protein, UniProt Q9FLH0 1-1010)", "chain": "MATSSRSERFPITPSTAATNRLTITPNSRVLKSPLTEEIMWKRLKDAGFDEQSIKNRDKAALIAYIAKLESEVYDYQHNMGLLLLEKNELSSQYEEIKASVDESDLTHMREKSAYVSALAEAKKREESLKKDVGIAKECISSLEKTLHEMRAECAETKVSAGSTMSEAHVMIEDALKKLADAEAKMRAAEALQAEANRYHRIAERKLKEVESREDDLTRRLASFKSECETKENEMVIERQTLNERRKSLQQEHERLLDAQVSLNQREDHIFARSQELAELEKGLDTAKTTFEEERKAFEDKKSNLEIALALCAKREEAVSERESSLLKKEQELLVAEEKIASKESELIQNVLANQEVILRKRKSDVEAELECKSKSVEVEIESKRRAWELREVDIKQREDLVGEKEHDLEVQSRALAEKEKDITEKSFNLDEKEKNLVATEEDINRKTTMLEDEKERLRKLDLELQQSLTSLEDKRKRVDSATQKLEALKSETSELSTLEMKLKEELDDLRAQKLEMLAEADRLKVEKAKFEAEWEHIDVKREELRKEAEYITRQREAFSMYLKDERDNIKEERDALRNQHKNDVESLNREREEFMNKMVEEHSEWLSKIQRERADFLLGIEMQKRELEYCIENKREELENSSRDREKAFEQEKKLEEERIQSLKEMAEKELEHVQVELKRLDAERLEIKLDRERREREWAELKDSVEELKVQREKLETQRHMLRAERDEIRHEIEELKKLENLKVALDDMSMAKMQLSNLERSWEKVSALKQKVVSRDDELDLQNGVSTVSNSEDGYNSSMERQNGLTPSSATPFSWIKRCTNLIFKTSPEKSTLMHHYEEEGGVPSEKLKLESSRREEKAYTEGLSIAVERLEAGRKRRGNTSGDETSEPSNNKKRKHDVTQKYSDEADTQSVISSPQNVPEDKHELPSSQTQTPSGMVVISETVKITRVTCETEVTNKVTTLDCSESPSEAGRKMGEETEDGDCNQTGINASETVIHNEAATEDICT"}}, "key": {"[1]": {"biological_target": "T1, CROWDED NUCLEI 2 (CRWN2), yeast two-hybrid fusion (Arabidopsis thaliana) (UniProt Q9SAF6)", "T1 sequence": "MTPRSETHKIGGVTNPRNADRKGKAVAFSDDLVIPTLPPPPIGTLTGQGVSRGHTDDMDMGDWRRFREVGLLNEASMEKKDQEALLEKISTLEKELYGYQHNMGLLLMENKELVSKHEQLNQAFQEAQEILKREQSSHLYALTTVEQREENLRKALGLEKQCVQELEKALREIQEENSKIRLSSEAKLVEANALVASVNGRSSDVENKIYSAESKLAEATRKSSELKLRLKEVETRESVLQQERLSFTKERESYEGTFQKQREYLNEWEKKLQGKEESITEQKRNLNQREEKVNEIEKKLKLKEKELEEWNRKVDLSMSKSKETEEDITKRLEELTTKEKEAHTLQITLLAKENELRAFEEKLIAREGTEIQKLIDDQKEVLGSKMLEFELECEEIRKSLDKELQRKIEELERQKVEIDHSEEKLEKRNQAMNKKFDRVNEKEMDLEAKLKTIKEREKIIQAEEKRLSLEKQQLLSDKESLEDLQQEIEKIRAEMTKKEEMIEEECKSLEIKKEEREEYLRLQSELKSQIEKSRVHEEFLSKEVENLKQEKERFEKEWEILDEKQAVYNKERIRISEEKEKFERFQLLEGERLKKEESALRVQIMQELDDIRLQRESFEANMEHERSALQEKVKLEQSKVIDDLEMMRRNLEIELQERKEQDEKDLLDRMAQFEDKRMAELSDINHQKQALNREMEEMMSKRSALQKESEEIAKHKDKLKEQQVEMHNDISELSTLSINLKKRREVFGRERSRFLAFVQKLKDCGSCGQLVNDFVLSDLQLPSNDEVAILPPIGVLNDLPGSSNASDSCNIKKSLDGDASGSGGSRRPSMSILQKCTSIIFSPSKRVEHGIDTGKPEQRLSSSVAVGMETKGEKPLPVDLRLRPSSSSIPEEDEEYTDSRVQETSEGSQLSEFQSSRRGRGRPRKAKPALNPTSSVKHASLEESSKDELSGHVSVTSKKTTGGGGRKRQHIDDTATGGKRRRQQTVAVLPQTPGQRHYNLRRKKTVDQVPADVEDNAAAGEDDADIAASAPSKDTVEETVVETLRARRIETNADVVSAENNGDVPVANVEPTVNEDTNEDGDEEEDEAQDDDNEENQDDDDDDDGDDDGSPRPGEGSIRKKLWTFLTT", "test": "two-hybrid; CRWN1-4 in pGADT7 (prey) and pGBKT7 (bait), Y2HGold yeast; growth on SD/-Leu/-Trp/-His"}, "[2]": {"biological_target": "T2, CROWDED NUCLEI 3 (CRWN3), yeast two-hybrid fusion (Arabidopsis thaliana) (UniProt Q9CA42)", "T2 sequence": "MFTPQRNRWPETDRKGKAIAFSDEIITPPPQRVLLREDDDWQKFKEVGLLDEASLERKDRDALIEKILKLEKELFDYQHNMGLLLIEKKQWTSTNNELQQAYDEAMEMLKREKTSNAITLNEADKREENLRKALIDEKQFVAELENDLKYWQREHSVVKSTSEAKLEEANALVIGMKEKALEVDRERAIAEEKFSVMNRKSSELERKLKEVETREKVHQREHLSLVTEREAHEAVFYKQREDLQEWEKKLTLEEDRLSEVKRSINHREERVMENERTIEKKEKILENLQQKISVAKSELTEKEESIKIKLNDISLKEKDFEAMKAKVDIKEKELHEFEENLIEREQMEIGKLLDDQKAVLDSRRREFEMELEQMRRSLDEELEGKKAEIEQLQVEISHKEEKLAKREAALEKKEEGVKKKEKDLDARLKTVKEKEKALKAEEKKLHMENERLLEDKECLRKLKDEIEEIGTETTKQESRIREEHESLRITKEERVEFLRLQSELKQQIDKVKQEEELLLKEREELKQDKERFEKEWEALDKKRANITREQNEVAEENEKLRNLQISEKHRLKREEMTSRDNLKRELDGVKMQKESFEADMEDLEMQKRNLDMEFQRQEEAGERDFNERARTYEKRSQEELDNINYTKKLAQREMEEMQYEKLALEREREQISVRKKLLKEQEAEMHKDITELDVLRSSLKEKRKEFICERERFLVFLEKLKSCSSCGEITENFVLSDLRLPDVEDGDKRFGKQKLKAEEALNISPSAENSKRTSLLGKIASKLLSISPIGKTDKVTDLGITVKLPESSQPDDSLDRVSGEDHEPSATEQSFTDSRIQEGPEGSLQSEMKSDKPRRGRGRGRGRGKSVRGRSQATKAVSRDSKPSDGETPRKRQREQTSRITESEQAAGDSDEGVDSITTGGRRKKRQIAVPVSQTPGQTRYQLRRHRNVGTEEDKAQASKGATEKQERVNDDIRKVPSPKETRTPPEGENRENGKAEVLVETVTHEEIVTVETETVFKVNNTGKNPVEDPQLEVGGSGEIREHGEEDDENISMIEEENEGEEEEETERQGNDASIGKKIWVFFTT", "test": "two-hybrid; CRWN1-4 in pGADT7 (prey) and pGBKT7 (bait), Y2HGold yeast; growth on SD/-Leu/-Trp/-His"}}, "note": "Results are given in words; binding and its absence hold for the method and conditions named. Where a sequence is shown, tags or fusion partners need not be part of it.", "data": [{"binder": "B1", "values": [{"measurement": "binding", "setting": "[1]", "result": "no binding"}, {"measurement": "binding", "setting": "[2]", "result": "no binding"}]}]}
